# According to the supplement of paper PMC11417369:
# The list shows a part of the results.
# System: PfHDP1 homeodomain (GST-tagged)
# Experiment: gcPBM binding intensity (ln(normalized median fluorescence intensity)); higher = stronger DNA binding
# Outline: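 Plasmodium falciparum DNA-binding domains carrying a GST tag were expressed in E. coli and applied for 1 h, at about 25 μg on average, to an Agilent 4 × 180k array. The array held primer-extended double-stranded 36-bp intergenic genomic probes together with negative controls, and binding took place in 1× PBS with 1% milk, 0.2 mg/ml BSA, 0.5% salmon testes DNA and 0.03% Triton X-100. An Alexa488 anti-GST antibody detected bound protein, and the array was scanned at 488 nm. Binding intensity is taken as the highest Masliner-normalised natural-log median intensity across replicate spots of either probe orientation.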
row,Sequence,gcPBM binding intensity (ln)
1,AAAAAAAACAGACACACACACATAAATATAAATAAA [CACACA_site6214],6.62
2,AAAATAATAATAAATGCATGTGTTGTTTACTAAGAA [TGCATGCA_site528],7.08
3,GAATAATATGGACATACACACATATACATACCTATA [CACACA_site7075],6.91
4,AAATATTATTGACGATGTACTTCTATTCATAAGTAT [XGTACX_site3964],5.94
5,CTTTTTAATGAATACACACACACACCGATATATATA [CACACA_site5296],7.08
6,TAAAACTTATACAAATGTACAAATATATATATATAT [XGTACX_site4661],9.19
7,AAAATTTTTTTTGGCGCACACTAATAATAAAATATA [CACACA_site470],6.82
8,TACTATTATTATTGCACACTTATTATCCCTCGGATA [CACACA_site162],10.3
9,AATATATATTAATACACACACACATATATATATATA [CACACA_site3786],9.22
10,TGATCATAGAAACACACACACAAAAAAAAAAAAAAA [CACACA_site4008],6.33
11,AGACGATAAATCATTCATTCATTTACCATCCAAAAA [CACACA_negctrl_site802],5.75
12,TTTTAATTAGTACAAACACACATATACAGACAAAAA [CACACA_site2563],7.13
13,TAATATAGAAAATGCATACACACTTTATATATATAT [CACACA_site911],8.61
14,AAAAAAAAAAGAAAAAGTACATACATACATATATAT [XGTACX_site6405],6.28
15,TTATTATTAGAAAAAAGTACACATATAAAATGTTAC [XGTACX_site6426],6.12
16,GTAAAATTAAAAATAACACACAAAAAAAAAAAAAAA [CACACA_site800],6.12
17,GGATACATATGTAAAAGTACACATGAATATATACAT [XGTACX_site6469],6.57
18,TATATATGTATGTATGTACACACAAAAAATGGAATA [CACACA_site9235],7.11
19,AAGAGAGAGAAATATGCACACATAAGGGAAATAAAT [CACACA_site8300],9.33
20,AATAAACATTATTTTCGTATTCCAATTCTTTTTTTT [XGTACX_negctrl_site374],6.24
21,TTTTTTTAAAACAAAAAAAAAAAAAAAAAAAAAAAA [TGCATGCA_negctrl_site418],5.72
22,TTCTTTTTTATTTATACATGCAATAAAAAATTGATT [TGCATGCA_site730],6.71

row,Sequence,gcPBM binding intensity (ln)
1,ATAATATATATATTTTGTACACATGAAAAGGAGGAT [XGTACX_site5034],7.62
2,AAAAAAAAGAAAAACACACACATATTTATTTATAAC [CACACA_site6600],6.45
3,TAAATAAATTTATGTACACACACAAATAAATACATA [CACACA_site5107],6.49
4,ATAATATATGTATGTATGCACTTTTATTATTTTTTT,7.24
5,TATATATATATATATAGTACACATATCACATAAATG [XGTACX_site6379],9.21
6,TATATATTAAATTATAGTACACATTATATATAATTA [XGTACX_site4841],6.55
7,AATGAAGACTTTTTTACACACTTCATATCTTATAGA [CACACA_site7046],6.72
8,AGCCACAATACGGAAACACACAAGTTATTTTATCAT [CACACA_site2724],6.59
9,AAATTTTTTCCGATTTGTACTTATATTTCTTTATTA [XGTACX_site1762],6.61
10,AATATTTTTAATTAATGTACATATTTATTATATAAA [XGTACX_site5112],6.34
11,TTTTTATGAATTCTTTTGTTAATAATAATATGTTGT [TGCATGCA_negctrl_site198],6.55
12,TTTTAACGTAATTCAAATGAGCAGAATTTTTTAAAA [CACACA_negctrl_site1800],6.28
13,CTATTACAAAGAAATTGTACATATATATATAAAAAC [XGTACX_site8800],6.81
14,ATATATATATATGTACACATATATGTGTTTGTTTTT [GTGCAC_negctrl_site5],8.99
15,ATCTTTCAATAATTCACACATATATATATATATATA [CACACA_site4598],9.48
16,TATAATAATACTTATTGTACTATTAGTTTAATTCAT [XGTACX_site6638],6.15
17,ATATATTATATATATAGTACGTATATAAATTTAATT [XGTACX_site5041],6.45
18,CATGAATTTTTTTAATGTACATTCACATCATAAAAA [XGTACX_site7475],6.78
19,GAAACTATGTAATGCACACCAAAATAAAATTATTAA [CACACA_site1904],10.3
20,TCTTCTTAACCAACTATGAAAAGGAAAAATATAACA [GTGCAC_negctrl_site565],6.41
21,TTATTTTTATTATAAATTATAAAATATAAATAAATA [GTGCAC_negctrl_site616],5.88
22,TAAATCCGCACGCACACACACATATTAATAAAAAAA [CACACA_site7800],7.57

row,Sequence,gcPBM binding intensity (ln)
1,ATTATAAAAAAGAAACGTACATATTTATTGTTTTTT [XGTACX_site2161],6.13
2,TATATAAATATACACCCACACACATATATATATATA [CACACA_site9247],9.17
3,AATAATTTAATACATACACACGTATATCTTTTTTTT [CACACA_site8632],6.47
4,TATATATATAACATATGTACATATATTTATAAATAC [XGTACX_site5484],7.32
5,TATAAAAAAAAATGTGGTACATATTTCCATTTTCCA [XGTACX_site4571],5.79
6,ATCGTAGTATAATATGAACACACACCCACCCACAAA [CACACA_site8616],8.14
7,TATATTCCACTCATTGATTTTCTCTTCTCACAAAAA [CACACA_negctrl_site1016],6.61
8,TACATTTAAAAAAAAACACACATATATATATATATA [CACACA_site2535],9.39
9,ATATATTTGTATAATAGTACGTACAGGCAAAATATA [XGTACX_site7396],7.03
10,ATAATAATAATAAAAAGTACAAATTATTATATATAT [XGTACX_site5160],6.97
11,ATATATAAATAATGTTGTACGTATTTCAAAAGTATG [XGTACX_site3363],6.42
12,TGTATGCTTACATAATGTACGGAAAAATAAAGGCAT [XGTACX_site6923],7.46
13,TGCTCTCTCTTGTTGTGTACATAATACAATATATAT [XGTACX_site7427],7.68
14,TATATAAGGAAATATTGTACTTTTATATTTATATTA [XGTACX_site3814],6.04
15,ATATAAAAATATAATACACACATAAAATATATTATA [CACACA_site969],6.52
16,AAAAAAAAAAAACACACACACACATACCCATACATA [CACACA_site5575],6.75
17,TTTCTTTTTATATTCACACATAAATATATATATATA [CACACA_site6053],8.67
18,TATAAAAGTGGACACACACACATATATATATATATA [CACACA_site4673],9.42
19,ACACATCAAATATAAAAAAAAAATAACTATAAATAA [CACACA_negctrl_site587],6.21
20,TAATAAATAGGACACACACACATATTTATATATCAT [CACACA_site6771],6.77
21,AATTTTTTTTTTTTGTTGCACTTTTAGAGTTTTAAT [GTGCAC_site9519],7.37
22,CCTTTAAGCAAAAACACACACACATATTTATTTATA [CACACA_site6294],6.72

row,Sequence,gcPBM binding intensity (ln)
1,TTGCAAAATTGTTTTATCACAAATATATACTTAATA [CACACA_negctrl_site403],6.3
2,AGATATAAGAAAAGCACACACACACTAGAAAAAAAA [CACACA_site5559],6.93
3,TAATTCTTGTAAAATGTGCGCAGTAGATATAGTTTT,7.11
4,ATATTTATTCAATCCAGTACATATTATATATTGTAT [XGTACX_site184],6.44
5,ATAAAATTATATACGTGTACATATATATATTTATGT [XGTACX_site4653],6.44
6,ATAATAAGAACTCAGTGTACTATCCTTTGAATTAAC [XGTACX_site8117],6.16
7,AACGTCTTTTTTTTTTTTTTTCTTTTTTTTTTTATT [CACACA_negctrl_site303],5.86
8,TAATTATTTTCGGTACGTACTAATGTATATATAATT [XGTACX_site3895],6.56
9,TAATAATTTTTTTTTTTTTTTTACGAAAATATGATT [GTGCAC_negctrl_site323],5.96
10,TTATTTCAAAGTTGTTGTACAAAAATATATTTATAA [XGTACX_site5226],6.9
11,AAGAAAAAGATGCGCATACACACAGATGAATAACAA [CACACA_site1627],7.68
12,TTTCTTTTTTAAATTAAAATTTTTTTTTTTTTCGGT [TGCATGCA_negctrl_site52],6.11
13,AAAGGTGTATTTAATACACACGTGTCATTAAAATTG [CACACA_site4508],6.66
14,TATATAAATTATGTGAGTACATAATTTAGAAGGAAC [XGTACX_site2807],6.64
15,AAAAAAATAATGTACACACACATATATGTTTATATA [CACACA_site6234],6.7
16,AATTAAAAAGTTTTTAATGTTTTTAATTTTTTCCAC [XGTACX_negctrl_site423],5.99
17,TTTCGTTGTGTATTTTGTACATATTTTTAATTATAT [XGTACX_site6687],7.08
18,TCCTTTTGAACCCTTTTTCTCACAAGACCTTTATAT [TGCATGCA_negctrl_site413],6.57
19,AATATAAATATAAATTGTACTTAAAAATTTCACGCA [XGTACX_site5234],5.95
20,TTAAAAAACTATAATACACACCAAAAATATGCACAT [CACACA_site7079],10.3
21,CTTTTTTGTAATAACACACACACAAACAGAAAAAAT [CACACA_site2075],7.35
22,ATAAAATATCAATACCGTACACAAGCAGGTAAAATA [XGTACX_site3719],6.21
